Measurements reported in the supplement of paper PMC6206098.
± gives the uncertainty stated by the source. Shown are siRNA guide strands that differ only in the seed, positions 2 to 7.

Key:
3LL = test: cell viability relative to siNT1 control; higher = less toxic; settings: concentration: 10 nM; 96 h; Mus musculus;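 further: Luminescence-based viability of cells reverse transfected in 384-well plates with lipid-complexed siRNAs built on a non-toxic 19mer backbone whose passenger strand carries 2′-O-methyl groups at positions 1 and 2, triplicates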
H460 = test: cell viability relative to lipid-only control; HeyA8 human ovarian and H460 human lung cancer; M565 mouse liver and 3LL mouse lung cancer; siNT1 is a non-toxic control siRNA; higher = less toxic; settings: concentration: 10 nM; 96 h; Homo sapiens
HeyA8 = test: as above; settings: concentration: 10 nM; 96 h; Homo sapiens
M565 = test: as above; settings: concentration: 10 nM; 96 h; Mus musculus
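Wherever cell viability relative to lipid-only control is given: reverse lipid transfection in 384-well plates, in triplicate, of duplexes on a non-toxic 19mer backbone with passenger strand 2′-O-methylated at positions 1 and 2, luminescence viability read-out.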

Sequence | cell viability (3LL) [%] | cell viability (H460) [%] | cell viability (HeyA8) [%] | cell viability (M565) [%]
UUUGCAAACAUGUAAACCAAA | 107 ± 7 | 100 ± 12 | 103 ± 2.1 | 100 ± 11
UUUGCACACAUGUAAACCAAA | 65.1 ± 8.8 | 60.9 ± 0.96 | 72.8 ± 5.5 | 52.9 ± 4.2
UUUGCAGACAUGUAAACCAAA | 102 ± 2.2 | 72.9 ± 6.6 | 102 ± 8 | 80.8 ± 8.8
UUUGCAUACAUGUAAACCAAA | 94.3 ± 1.3 | 82.1 ± 11 | 93.7 ± 1.9 | 104 ± 7.6
UUUGCCAACAUGUAAACCAAA | 69.6 ± 5.9 | 75.1 ± 3.2 | 81.1 ± 6.9 | 75.1 ± 8.3
UUUGCCCACAUGUAAACCAAA | 38.5 ± 6 | 57.2 ± 6.2 | 79.4 ± 5.5 | 46.6 ± 8.3
UUUGCCGACAUGUAAACCAAA | 83.9 ± 3.8 | 76 ± 9.9 | 94.4 ± 3.1 | 79.4 ± 7
UUUGCCUACAUGUAAACCAAA | 23.4 ± 1.8 | 55.1 ± 5.6 | 72.7 ± 5 | 30 ± 4.9
UUUGCGAACAUGUAAACCAAA | 98.8 ± 3 | 86.2 ± 8.2 | 99.2 ± 2.6 | 96.8 ± 13
UUUGCGCACAUGUAAACCAAA | 94.5 ± 9.7 | 90.8 ± 10 | 80.5 ± 7.2 | 62 ± 11
UUUGCGGACAUGUAAACCAAA | 99.8 ± 8.4 | 89.1 ± 5.5 | 93 ± 4.8 | 62.2 ± 5.1
UUUGCGUACAUGUAAACCAAA | 90.1 ± 7.1 | 75.8 ± 10 | 102 ± 7.9 | 69.2 ± 10
UUUGCUAACAUGUAAACCAAA | 101 ± 13 | 84.2 ± 3.8 | 94.6 ± 1.4 | 118 ± 5.4
UUUGCUCACAUGUAAACCAAA | 88.4 ± 4.3 | 96.3 ± 16 | 74.4 ± 5.5 | 53.9 ± 5.2
UUUGCUGACAUGUAAACCAAA | 79.4 ± 2.1 | 79.3 ± 7.1 | 94.5 ± 4.5 | 59 ± 5.7
UUUGCUUACAUGUAAACCAAA | 88.3 ± 1.7 | 79.1 ± 15 | 80.6 ± 2.9 | 103 ± 7.8
UUUGGAAACAUGUAAACCAAA | 104 ± 5.2 | 95.3 ± 12 | 97.7 ± 5.5 | 74.2 ± 11
UUUGGACACAUGUAAACCAAA | 78.2 ± 6.5 | 74.6 ± 12 | 69.7 ± 3.5 | 65.7 ± 11
UUUGGAGACAUGUAAACCAAA | 98.4 ± 7 | 80 ± 11 | 98.4 ± 3.9 | 54.6 ± 5.4
UUUGGAUACAUGUAAACCAAA | 82.9 ± 5 | 73.4 ± 4.8 | 98.1 ± 2.2 | 103 ± 13
UUUGGCAACAUGUAAACCAAA | 69.1 ± 6.9 | 79.8 ± 8.6 | 100 ± 4.5 | 41.4 ± 7.5
UUUGGCCACAUGUAAACCAAA | 56.4 ± 6.5 | 55.7 ± 4.2 | 84.6 ± 7.8 | 43.2 ± 8
UUUGGCGACAUGUAAACCAAA | 99.3 ± 5 | 93.8 ± 9 | 98.6 ± 6.2 | 79.1 ± 13
UUUGGCUACAUGUAAACCAAA | 32.4 ± 0.94 | 46.5 ± 4.5 | 87 ± 2 | 36.8 ± 4
UUUGGGAACAUGUAAACCAAA | 96.6 ± 8.1 | 74.5 ± 6.5 | 101 ± 1.3 | 68.3 ± 9.5
UUUGGGCACAUGUAAACCAAA | 39 ± 8.5 | 46.4 ± 5.2 | 73.8 ± 4.7 | 34.4 ± 2.2
UUUGGGGACAUGUAAACCAAA | 76.9 ± 4.7 | 54.3 ± 4.2 | 73.7 ± 5.7 | 31.8 ± 2.1
UUUGGGUACAUGUAAACCAAA | 22.5 ± 5.5 | 72.5 ± 1.6 | 91.6 ± 7 | 41 ± 8.5
